Results taken from PubChem BioAssay AID686971 (National Center for Advancing Translational Sciences (NCATS), 2013).
Several values for one entry are separate records, joined by “and”; a condition that tells them apart may be missing. Identical values can stand only once. About 7,500 (2.1%) of roughly 360,000 compounds were called active. The inconclusive results got no clear call from the source; some entries with a clear call stand among them for comparison. Calls come from the whole dose curve; as a rule, active = well fitted cell-killing curve with a large enough effect; inconclusive = small, poorly fitted or top-dose-only effect, or effect the other way, or another doubt; inactive = no such curve, though single readings can be large or run the other way. A potency beside an inconclusive call is a rough fit, not a confirmed value.

Assay: qHTS for induction of synthetic lethality in tumor cells producing 2HG: qHTS for the HT-1080-IDH1KD cell line;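 for activity, negative = toxicity: 0% = DMSO wells and -100% = cell-free medium wells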
Conditions: HT-1080 IDH1 knockdown viability, ATP luminescence, 48 h; activity, negative = toxicity: at 46.1 µM (top of the series) unless noted
How it was run: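 Using the IDH1-knockdown HT-1080 line run in the same batch and compound series as the NT line, viability after 48 h at 37 °C was determined by CellTiter-Glo luminescence and expressed as % activity.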
Potency is the fitted concentration of half-maximal effect; tags give direction and shape of the fitted curve.

| SMILES | Potency | activity, negative = toxicity |
| --- | --- | --- |
| CCOC(=O)COc1cc(Br)c(/C=N/Nc2ccccc2)cc1OC | inconclusive: 5.17 µM [cytotoxic, full curve, poor fit] | – |
| CC[C@H](C)Cc1cn([C@@H](CCCN=C(NC(=O)OC(C)(C)C)NC(=O)OC(C)(C)C)C(=O)NCCCCCCCCCCC(=O)N2CCN(C(=O)OC(C)(C)C)CC2)nn1 | inconclusive: 18.4 µM [cytotoxic, single point] | – |
| O=C(CCC(=O)Nc1ccc(F)cc1)N/N=C/c1c[nH]c2ccccc12 | – | inactive: -11.6% |
| Cc1ccc(C)c(NC(=O)Cn2nnc(C(=O)NCc3cccs3)c2N)c1 | active: 23.1 µM | – |
| Cn1c(C(=O)OC(C(=O)NCc2ccco2)c2ccncc2)cc2sccc21 (stereo unspecified) | – | inactive: -1.76% |
| CC(NC(=O)C1CCN(C(=O)Nc2ccccc2)CC1)c1ccccc1 (stereo unspecified) | – | inactive: -0.433% |
| CN(C)/C=N/C(=S)Nc1cc(Cl)cc(Cl)c1 | – | inactive: -4.61% |
| C[C@@H]1CN([C@@H](C)CO)C(=O)CCCn2nncc2CO[C@@H]1CN(C)C(=O)c1ccc(N2CCN(C)CC2)cc1 | – | inactive: 4.94% |
| CCOc1ccc(N=C(C)c2ccccc2O)cc1 | – | inconclusive: -33% [cytotoxic] |
| N#CC1CC(c2ccccc2)Nc2cc(Cl)ccc2N1 (stereo unspecified) | inconclusive: 7.31 µM [cytotoxic, partial curve] | – |
| N#Cc1c(-c2ccco2)nc(SCc2ccc(F)cc2)[nH]c1=O | inconclusive: 35.5 µM [cytotoxic, single point] | – |
| O=C(Nc1ccccc1N1CCOCC1)c1ccc([N+](=O)[O-])o1 | – | inactive: 0.812% |
| CC1(C)CC(=O)C2=C(C1)NC1=C(C(=O)c3ccccc31)C2c1cc([N+](=O)[O-])ccc1O (stereo unspecified) | inconclusive: 23.1 µM [cytotoxic, partial curve] | – |
| Cc1ccnc(NC(=O)CCCOc2cc(=O)n(C)c3ccccc23)c1 | inactive and inconclusive: 23.1 µM [cytotoxic, partial curve, poor fit] | – |
| CC(C)(CNC(=O)c1cccs1)CNC(=O)c1cccs1 | – | inactive: -2.24% |
| NS(=O)(=O)OCC1CCCCC1 | – | inactive: 5.75% |
| CC(=O)NC(c1cccc([N+](=O)[O-])c1)c1ccc2cccnc2c1O (stereo unspecified) | inconclusive: 11.6 µM [cytotoxic, partial curve] | – |
| O=C(Nc1ccccc1)Nc1cccc(NC(=O)Nc2ccccc2)c1F | – | inactive: 0% |
| O=C(Nc1ccc([N+](=O)[O-])cc1)C(=O)Nc1cccc(C(=O)O)c1 | inconclusive: 25.9 µM [cytotoxic, single point] | – |
| Cc1ccc(-c2cc(C(=O)N3CCN(c4ccc(O)cc4)CC3)c3ccccc3n2)cc1 | inconclusive: 29.1 µM [cytotoxic, single point] | – |
| COc1ccc(-c2onc(C)c2-c2ccc3c(c2)OCCO3)c(O)c1 | inconclusive: 29.1 µM [cytotoxic, single point] | – |
| COc1ccc2c(/C=C/c3cc[n+](C)cc3)c[nH]c2c1 | – | inactive: -2.3% |
| COc1ccc(Cc2c(-c3ccc(C)cc3)nc3ccc(Cl)cn23)c(C)c1 | inconclusive: 29.1 µM [cytotoxic, single point] | – |

| SMILES | Potency | activity, negative = toxicity |
| --- | --- | --- |
| COCCNC(=O)c1cc(OC)c(OC)cc1[N+](=O)[O-] | – | inactive: 25.2% |
| Cc1ccc(C(=O)O/N=C\c2ccc(N3CCOCC3)c([N+](=O)[O-])c2)cc1 | – | inconclusive: 32% |
| COc1ccc(CN2CCCC(CO)(Cc3ccc(F)cc3F)C2)cc1 (stereo unspecified) | inconclusive: 20.6 µM [cytotoxic, single point] | – |
| COC(=O)c1ccccc1COc1cccn2c(N(C)Cc3cccs3)c(C)nc12 | inconclusive: 29.1 µM [cytotoxic, single point] | – |
| CCOC(=O)c1c(NC(=O)CSc2nc3ccc(C)cc3[nH]2)sc2c1CC(C)(C)NC2(C)C | – | inactive: -13.3% |
| Cc1ccc(F)c(S(=O)(=O)NC(=O)C2(C)CCN2C(=O)CC2CCCCC2)c1 (stereo unspecified) | inconclusive: 25.9 µM [rising, single point] | – |
| CCOc1ccc(C(Nc2cccnc2)c2cc(Cl)c3cccnc3c2O)cc1 (stereo unspecified) | active: 14.6 µM | – |
| CCOC(=O)CSc1nc2ccc(Nc3nc(N4CCOCC4)nc(N4CCOCC4)n3)cc2s1 | inconclusive: 35.5 µM [rising, partial curve, poor fit] | – |
| O=C(Oc1cccc2cccnc12)c1cccc([N+](=O)[O-])c1 | inconclusive: 29.1 µM [cytotoxic, single point] | – |
| Fc1ccc(C2CCCN2Cc2nc(-c3cnccn3)no2)cc1 (stereo unspecified) | inconclusive: 18.4 µM [cytotoxic, single point] | – |
| CCCN1C/C(=C/c2ccc3c(c2)OCO3)C(=O)/C(=C/c2ccc3c(c2)OCO3)C1 | inconclusive: 29.1 µM [cytotoxic, single point] | – |
| Oc1ccc2ccccc2c1C=Nc1ccccc1-c1nc2ccccc2[nH]1 | – | inactive: -15.2% |
| O=C(CSC1=NS(=O)(=O)c2cc(F)ccc2N1)NCc1ccccc1Cl | – | inactive: -0.2% |
| Cc1c(C(=O)N2CCCCC2)oc2ccc(S(=O)(=O)N3CC(C)CC(C)C3)cc12 (stereo unspecified) | inconclusive: 32.6 µM [cytotoxic, single point] | – |
| Cc1nc2ccccc2nc1OCC(=O)NCc1ccc2c(c1)OCO2 | inconclusive: 25.9 µM [cytotoxic, single point] | – |
| O=C1NCCCC1(c1ccccc1)c1ccccc1 | – | inactive: 9.68% |
| COc1ccc(/C=N/NC(=O)c2ccc3ccccc3c2)cc1OS(=O)(=O)c1ccc(NC(C)=O)cc1 | inconclusive: 3.16 µM [cytotoxic, full curve] | – |
| COCCN1C(=O)CN(S(C)(=O)=O)CC1(C)C(=O)NC(C)C (stereo unspecified) | – | inactive: 15.6% |
| CCOc1ccc(-c2nn(-c3ccccc3)cc2/C=C(\C#N)S(=O)(=O)c2ccccc2)cc1C | – | inconclusive: 34.5% |
| CCOC(=O)c1sc(=S)n(-c2cc(F)ccc2F)c1N | inconclusive: 35.5 µM [cytotoxic, single point] | – |
| O=[N+]([O-])c1cccc(-c2ccc(C(=S)N3CCOCC3)o2)c1 | – | inactive: -9.83% |
| O=C(Nc1ccc2c(c1)CCC2)c1cnn2c1NC(c1ccco1)CC2C(F)(F)F (stereo unspecified) | active: 23.1 µM | – |
| N#C/C(=C\c1c[nH]c2ccc(Br)cc12)c1ccccn1 | inconclusive: 23.1 µM [cytotoxic, single point] | – |
